Measured values: the supplement of paper PMC3334620
In all, about 33,000 sequences were measured (“E-score (-0.5 to 0.5)”: median about -0.053, highest 2% from about 0.37 on). Some of the results follow.

The sequences below were run against Hap1 (UniProt P0CE41) (assay: PBM E-score (8-mer binding enrichment) (E-score (-0.5 to 0.5)); higher = stronger / more preferred TF binding; most listed sequences are background and not binding sites). Details: protein concentration: 200 nM; construct: GST-DNA-binding domain.
Chain of UniProt P0CE41 (P0CE41 whole entry, the tested form may be a part): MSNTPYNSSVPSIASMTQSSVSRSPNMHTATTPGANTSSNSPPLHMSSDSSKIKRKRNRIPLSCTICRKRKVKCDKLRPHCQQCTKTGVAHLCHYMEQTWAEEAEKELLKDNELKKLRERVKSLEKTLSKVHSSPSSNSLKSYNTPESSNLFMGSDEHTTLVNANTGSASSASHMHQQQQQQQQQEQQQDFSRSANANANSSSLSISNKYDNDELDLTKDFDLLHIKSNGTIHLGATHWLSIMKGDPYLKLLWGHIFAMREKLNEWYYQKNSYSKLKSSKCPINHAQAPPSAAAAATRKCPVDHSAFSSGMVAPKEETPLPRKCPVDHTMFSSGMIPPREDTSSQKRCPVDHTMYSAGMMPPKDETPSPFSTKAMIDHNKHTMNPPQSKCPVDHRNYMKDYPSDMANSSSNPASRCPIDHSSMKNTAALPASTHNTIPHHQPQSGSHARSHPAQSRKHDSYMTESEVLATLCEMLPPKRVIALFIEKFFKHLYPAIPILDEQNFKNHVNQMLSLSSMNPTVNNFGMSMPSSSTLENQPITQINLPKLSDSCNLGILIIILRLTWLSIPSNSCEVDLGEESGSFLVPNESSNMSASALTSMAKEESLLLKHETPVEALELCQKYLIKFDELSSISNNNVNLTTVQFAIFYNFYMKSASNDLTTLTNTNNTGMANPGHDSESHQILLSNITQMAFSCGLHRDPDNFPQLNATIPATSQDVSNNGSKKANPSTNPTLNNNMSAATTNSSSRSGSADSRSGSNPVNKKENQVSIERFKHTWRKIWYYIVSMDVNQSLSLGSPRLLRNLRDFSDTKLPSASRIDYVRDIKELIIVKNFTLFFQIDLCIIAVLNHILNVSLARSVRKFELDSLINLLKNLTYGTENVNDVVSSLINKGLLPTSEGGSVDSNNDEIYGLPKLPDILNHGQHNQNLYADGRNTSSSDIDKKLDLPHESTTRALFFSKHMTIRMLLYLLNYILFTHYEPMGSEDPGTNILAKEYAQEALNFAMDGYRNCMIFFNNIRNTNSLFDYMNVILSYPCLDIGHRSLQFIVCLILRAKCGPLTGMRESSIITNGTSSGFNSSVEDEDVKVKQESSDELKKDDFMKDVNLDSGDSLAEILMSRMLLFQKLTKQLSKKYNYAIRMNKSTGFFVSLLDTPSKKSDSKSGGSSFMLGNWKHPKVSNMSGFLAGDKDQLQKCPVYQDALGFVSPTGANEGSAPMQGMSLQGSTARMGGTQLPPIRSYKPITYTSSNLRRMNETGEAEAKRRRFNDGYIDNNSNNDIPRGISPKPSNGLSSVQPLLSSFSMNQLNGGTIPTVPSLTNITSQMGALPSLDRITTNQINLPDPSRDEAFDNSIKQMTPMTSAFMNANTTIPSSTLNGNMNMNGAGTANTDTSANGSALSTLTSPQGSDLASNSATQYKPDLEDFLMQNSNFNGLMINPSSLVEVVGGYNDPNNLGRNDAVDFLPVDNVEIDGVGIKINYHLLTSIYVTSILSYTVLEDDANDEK
Summary of the method: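 Universal all-10-mer Agilent arrays, fresh or stripped once, were converted to double-stranded form by primer extension. GST-tagged yeast transcription factors from PURExpress in vitro transcription/translation, full-length or DNA-binding domain only, were applied at about 100-200 nM and detected with fluorescent anti-GST. After masliner normalisation, the Universal PBM Analysis Suite scored each ungapped eight-base word together with its reverse complement by E-score.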

Row | Sequence | PBM E-score
1 | ATAGCAAG | -0.13
2 | GCGTCAAC | 0.0164
3 | GTTAGTCA | -0.0615
4 | CACGCAAG | -0.195
5 | ACTGCACC | 0.0352
6 | CGGGGACA | 0.275
7 | TAGTCAAA | -0.259
8 | CATTGAGC | -0.144
9 | CGATCTTA | 0.0333
10 | ACGGTCCT | -0.021
11 | CGAAGAGC | 0.149
12 | TTACGGAA | 0.317
13 | CTTAAGAC | 0.14
14 | CCGCGTAA | 0.229
15 | ATGCGCTA | -0.0961
16 | CTGAGGCA | -0.236
17 | AACGATAT | -0.0547
18 | CGATGCGC | 0.13
19 | CGTAAAAG | 0.0842
20 | CAACTCAA | -0.184
21 | AAAATCCG | 0.437
22 | ATACTATA | -0.177
23 | AAAATCGA | -0.107
24 | GCGTCTGA | -0.223
25 | AAATCGAG | -0.0227

Row | Sequence | PBM E-score
26 | ACCAGGGG | -0.191
27 | ACTAATAC | 0.219
28 | CCATGTAC | -0.102
29 | CGGCCTTC | 0.301
30 | GGTTTGTA | -0.0977
31 | CGCTGCAC | -0.0193
32 | GCCGTAAC | 0.229
33 | CTGTTAAA | -0.146
34 | AGACCCTA | -0.17
35 | CAAGCCAC | -0.21
36 | AAGTCTTC | -0.209
37 | AAATACGC | 0.179
38 | ATTCAGCG | 0.012
39 | AAATCCGC | 0.387
40 | CGGCACAA | 0.145
41 | AGATGTTC | -0.135
42 | ACAATTCG | 0.0487
43 | GACCCACA | -0.122
44 | ATACGAAA | 0.0671
45 | CCGCCCGA | 0.37
46 | TCACCACA | -0.168
47 | ATTACAAA | -0.115
48 | CAGGTATC | 0.0262
49 | AACAATAC | -0.134
50 | CATTTTTC | 0.0562

Row | Sequence | PBM E-score
51 | TGGAACAA | -0.211
52 | CTTCGCAC | -0.129
53 | AGTTACGG | 0.0958
54 | AATGCGCA | 0.067
55 | GTCTCATA | -0.073
56 | GTGCGTAA | -0.0602
57 | ACAAGAGC | -0.109
58 | CAGACAGC | -0.11
59 | ATGTATTG | -0.0708
60 | AATTCCTG | -0.0671
61 | CAGCGGTA | -0.00677
62 | CATAGAAG | -0.0619
63 | TCCCTCCA | -0.206
64 | ACGCCGCA | 0.18
65 | AGCCTAGA | -0.296
66 | AATTGACA | 0.0446
67 | CGTAGGGC | -0.163
68 | GAAATGGC | 0.0049
69 | AAAAGCGC | 0.134
70 | CAGTTACC | 0.109
71 | GATAAATC | 0.216
72 | ACGGGACT | 0.119
73 | AACTAACC | 0.122
74 | ATTGTCAA | -0.133
75 | ACCTAAGT | 0.00803

Row | Sequence | PBM E-score
76 | CGAGAGCC | 0.0315
77 | TCGAATCA | -0.201
78 | ACGGCACC | -0.129
79 | GCCCACAA | -0.182
80 | ACTCCTTA | -0.13
81 | CATTCCTA | -0.226
82 | AAGTATAA | 0.132
83 | AGCTCGAA | 0.154
84 | TCGAGGCA | -0.323
85 | CAATGGCG | 0.165
86 | GTGCCGCA | -0.0182
87 | TCATTCCA | -0.0281
88 | CAGCCGGA | 0.33
89 | AATACTGC | -0.0242
90 | AAACTACC | -0.0252
91 | ATTAATTA | -0.241
92 | AGGAGTGA | -0.255
93 | ACGTGGCC | -0.352
94 | CGTTTCGA | -0.266
95 | CAACCCGA | 0.199
96 | ACATGGCA | -0.218
97 | ACATTGTG | -0.268
98 | ACGCGAAG | 0.0657
99 | AAACACGG | 0.0865
100 | AGAGGGGG | -0.205

Row | Sequence | PBM E-score
101 | GACTCCCC | -0.00194
102 | GCGGCGTA | 0.18
103 | AACCCCAC | -0.0339
104 | CAAGCACG | -0.0706
105 | AACCCCAT | 0.134
106 | ACCGTCAT | -0.0249
107 | ACCACTAG | -0.231
108 | CCTCGACG | -0.11
109 | CGGCCCAG | 0.269
110 | CGCTAGCG | 0.0545
111 | CAGGGGTA | -0.29
112 | AACCTTGT | -0.302
113 | TCTTCCCA | -0.168
114 | AAGATGCT | -0.0629
115 | GCGACAGC | 0.0479
116 | AAGAATGA | -0.104
117 | CCCGTCCG | 0.314
118 | CCAATCCA | -0.0616
119 | ACTCCAGC | -0.126
120 | AATTGTCT | -0.0911
121 | TACCGATA | 0.378
122 | AGGGTTGG | -0.124
123 | CAATTTTA | -0.116
124 | AACCCAGC | -0.192
125 | GCCTATAA | -0.109

Row | Sequence | PBM E-score
126 | GCGGACAC | 0.203
127 | GCCTCAGA | -0.136
128 | CAACCCCG | 0.275
129 | CGAACTCC | 0.239
130 | AAAGCTGG | -0.194
131 | GTGTCAAC | -0.126
132 | AGAATTTG | -0.0982
133 | GTAGGAAA | -0.201
134 | GCTCCGTA | 0.297
135 | CATTCAAA | 0.0502
136 | AGCTCCCG | 0.0669
137 | ATATATAC | 0.144
138 | ATGCAACA | -0.345
139 | CACAGTCG | -0.183
140 | AACCAGGG | -0.174
141 | TATATCCA | 0.113
142 | GAAATCAA | 0.0626
143 | CAGTTCGC | -0.0818
144 | AATAAAGC | 0.0801
145 | CATATTGG | -0.253
146 | CGATAGAA | 0.213
147 | CTTGGCGC | 0.0636
148 | AGACCCCA | -0.0132
149 | ACCGGAGG | 0.399
150 | ATGAGACG | -0.0433

Row | Sequence | PBM E-score
151 | TGAGCCCA | -0.153
152 | ACAGAGGA | -0.18
153 | ACGGATCG | 0.199
154 | AGACCCGC | 0.158
155 | AGGATCGG | 0.129
156 | GATCAGCA | 0.0132
157 | TAAATCAA | -0.0853
158 | CGCGTCTA | -0.0862
159 | AGCAACAG | -0.091
160 | GCTCCGGA | 0.444
161 | ACGGTCTA | -0.00569
162 | ACGTATTG | -0.116
163 | GCACGGAC | 0.353
164 | TGCTTACA | -0.178
165 | GAGGGGGC | -0.199
166 | ATACGCCC | 0.133
167 | CATTACTA | -0.114
168 | AGGTTCTA | -0.146
169 | ATCCACGA | -0.204
170 | CAAGCAGC | -0.207
171 | CACTGTAA | -0.145
172 | CTGACACA | -0.34
173 | ATGTTCAG | -0.205
174 | ATAAGAAG | 0.0696
175 | ACAAGAGT | -0.06

Row | Sequence | PBM E-score
176 | CGTGGTCC | -0.0363
177 | CCTATGAC | -0.13
178 | AAAATGCT | 0.0607
179 | ATCAGTGA | -0.209
180 | GGAGTTAA | 0.429
181 | CGATGTCC | 0.294
182 | CTGGCGAA | -0.152
183 | CCACAGGG | -0.234
184 | AAGTCGAG | -0.359
185 | AGAAGGTA | -0.0664
186 | AGTTGAGC | -0.188
187 | GAAAACTC | 0.0404
188 | ATTCGTTC | 0.0564
189 | ATCTGAGC | -0.00782
190 | CTGAGATC | -0.171
191 | AGAAGGAC | -0.152
192 | GTTCATTA | -0.0465
193 | GTTTAGAA | -0.0388
194 | CAGTCTTA | -0.248
195 | GGCCCGCC | 0.168
196 | GAAAATAA | -0.0957
197 | CATTGCTC | 0.145
198 | ACCAGGTG | -0.0817
199 | GAGACCCA | -0.0262
200 | AACTAAGC | -0.138

Row | Sequence | PBM E-score
201 | AAGTTGGG | -0.12
202 | CTCCGAGA | 0.376
203 | TACCTCTA | -0.0913
204 | ACGACGGA | 0.199
205 | CAGGGAGA | -0.312
206 | GGAAACTA | 0.181
207 | ATTTCGCG | 0.207
208 | AACTCTGC | -0.162
209 | CGAGGCAG | -0.0113
210 | ATTTCAAC | 0.0331
211 | TCATGCGA | -0.0921
212 | CGATTCGA | 0.0919
213 | CCGCGCAA | 0.0206
214 | AATGCCCC | 0.0889
215 | ACACTAGT | -0.241
216 | ATTTACTG | -0.0577
217 | ATGGCTTG | -0.0703
218 | AACCTGTG | -0.315
219 | AATTGGGA | -0.0769
